System: adult patients with uncontrolled gout
Experiment: Open-label study: tender joint count (68-point) and swollen joint count (66-point)
Type: in vivo, human
Details: mITT Population
[1] = Day 1, change from Methotrexate Baseline
[2] = Early Termination Visit, change from Methotrexate Baseline
[3] = Early Termination Visit, change from Pegloticase Baseline
[4] = Early Termination Visit, Methotrexate Baseline table
[5] = Early Termination Visit, Pegloticase Baseline table
[6] = End of Pegloticase Infusions Visit, change from Pegloticase Baseline
[7] = End of Pegloticase Infusions Visit, Methotrexate Baseline table
[8] = End of Pegloticase Infusions Visit, Pegloticase Baseline table
[9] = Week 14, change from Methotrexate Baseline
[10] = Week 14, Methotrexate Baseline table
[11] = Week 14, Pegloticase Baseline table
[12] = Week 24, change from Methotrexate Baseline
[13] = Week 24, change from Pegloticase Baseline
[14] = Week 24, Methotrexate Baseline table
[15] = Week 24, Pegloticase Baseline table
[16] = Week 36, change from Methotrexate Baseline
[17] = Week 36, change from Pegloticase Baseline
[18] = Week 36, Methotrexate Baseline table
[19] = Week 36, Pegloticase Baseline table
[20] = Week 52/ET, Methotrexate Baseline table
[21] = Week 52/ET, Pegloticase Baseline table

## pegloticase
[1]
  Swollen Joint Count, Change from Baseline, Median: 0.5
  Tender Joint Count, Change from Baseline, Median: 0.0
Day 1, Methotrexate Baseline table
  Tender Joint Count, Observed, Median: 7.0
[2]
  Swollen Joint Count, Change from Baseline, Median: 0.0
  Tender Joint Count, Change from Baseline, Median: 2.0
[3]
  Swollen Joint Count, Change from Baseline, Median: −4.0
  Tender Joint Count, Change from Baseline, Median: −4.0
[4]
  Swollen Joint Count, Observed, Median: 1.0
  Tender Joint Count, Observed, Median: 3.0
[5]
  Swollen Joint Count, Observed, Median: 1.0
  Tender Joint Count, Observed, Median: 3.0
End of Pegloticase Infusions Visit, change from Methotrexate Baseline
  Swollen Joint Count, Change from Baseline, Median: −7.0
[6]
  Swollen Joint Count, Change from Baseline, Median: −2.0
  Tender Joint Count, Change from Baseline, Median: −3.0
[7]
  Swollen Joint Count, Observed, Mean (SD): 0.0 (0.00)
  Swollen Joint Count, Observed, Median: 0.0
  Tender Joint Count, Observed, Median: 2.0
[8]
  Swollen Joint Count, Observed, Mean (SD): 0.0 (0.00)
  Swollen Joint Count, Observed, Median: 0.0
  Tender Joint Count, Observed, Median: 2.0
[9]
  Swollen Joint Count, Change from Baseline, Median: −2.0
  Tender Joint Count, Change from Baseline, Median: 0.0
Week 14, change from Pegloticase Baseline
  Tender Joint Count, Change from Baseline, Median: −5.0
[10]
  Swollen Joint Count, Observed, Median: 0.0
  Tender Joint Count, Observed, Median: 2.0
[11]
  Swollen Joint Count, Observed, Median: 0.0
  Tender Joint Count, Observed, Median: 2.0
[12]
  Swollen Joint Count, Change from Baseline, Median: −3.0
  Tender Joint Count, Change from Baseline, Median: −4.0
[13]
  Swollen Joint Count, Change from Baseline, Median: −3.0
  Tender Joint Count, Change from Baseline, Median: −4.0
[14]
  Swollen Joint Count, Observed, Median: 0.0
  Tender Joint Count, Observed, Median: 0.0
[15]
  Swollen Joint Count, Observed, Median: 0.0
  Tender Joint Count, Observed, Median: 0.0
[16]
  Swollen Joint Count, Change from Baseline, Median: −3.0
  Tender Joint Count, Change from Baseline, Median: −7.0
[17]
  Swollen Joint Count, Change from Baseline, Median: −4.0
  Tender Joint Count, Change from Baseline, Median: −4.0
[18]
  Swollen Joint Count, Observed, Median: 0.0
  Tender Joint Count, Observed, Median: 0.0
[19]
  Swollen Joint Count, Observed, Median: 0.0
  Tender Joint Count, Observed, Median: 0.0
[20]
  Swollen Joint Count, Observed, Mean (SD): 0.0 (0.00)
  Swollen Joint Count, Observed, Median: 0.0
  Tender Joint Count, Observed, Median: 4.0
[21]
  Swollen Joint Count, Observed, Mean (SD): 0.0 (0.00)
  Swollen Joint Count, Observed, Median: 0.0
  Tender Joint Count, Observed, Median: 4.0
